Experimental data: the RNAGym collection of RNA variant scans (doi:10.1093/nar/gkz1192)
Read counts are not given, so values of variants with three or more changes are uncertain.

B1: CPEB3 Ribozyme (parent)
chain: UAACAGGGGGCCACAGCAGAAGCGUUCACGUCGCAGCCCCUGUCAGAUUCUGGUGAAUCUGCGAAUUCUGCUGUAUAUCUC

Variants of: B1
Experiment: self-cleavage, relative activity (ratio to wild type); higher = more cleavage; in vitro, sequencing
Procedure, shortened: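 For each CPEB3 ribozyme variant, relative activity is its cleaved/total read fraction divided by the unmutated ribozyme's. Barcoded error-prone PCR libraries were transcribed by T7 RNA polymerase (5 hours, 37°C) and held in DNase I for 15 min before an EDTA stop, with cleavage occurring throughout. Template-switching reverse transcription and Illumina sequencing were used to read the RNAs. A 5-read minimum applied, and results are the mean of three batches.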

Question: With C17U A21G U26A A35U U66C U72A U74C as the variant, how does the self-cleavage read?
Answer: 0.07

Question: With C17U A21G U43C U74G U80C as the variant, how does the self-cleavage read?
Answer: 0.41

Question: Which self-cleavage does the source give for C17U A21G U49C A57G U72C here?
Answer: 0.07

Question: Which self-cleavage does the source give for C17U A21U C50A A56G A64G here?
Answer: 0.12

Question: Which self-cleavage does the source give for C17U A28G A45G U69A here?
Answer: 0.4

Question: Which self-cleavage does the source give for C17U A28G C50U here?
Answer: 0.62

Question: Which self-cleavage does the source give for C17U A28G C81G here?
Answer: 0.5

Question: For C17U A28G U43C A77U, which self-cleavage is on record?
Answer: 0.11

Question: Which self-cleavage does the source give for C17U A28G U54C U67C A75G here?
Answer: 0.07

Question: With C17U A28G U76C U78C as the variant, how does the self-cleavage read?
Answer: 0.51

Question: Which self-cleavage does the source give for C17U A28U A35U A56G here?
Answer: 0.18

Question: With C17U A35U A45U as the variant, how does the self-cleavage read?
Answer: 0.17

Question: Which self-cleavage does the source give for C17U A35U A56G U58C here?
Answer: 0.23

Question: For C17U A35U A56U G73A, which self-cleavage is on record?
Answer: 0.33

Question: With C17U A35U G63U as the variant, how does the self-cleavage read?
Answer: 0.42

Question: With C17U A35U U43A as the variant, how does the self-cleavage read?
Answer: 0.56

Question: With C17U A45G A64U as the variant, how does the self-cleavage read?
Answer: 0.17

Question: With C17U A45G U48C A64G as the variant, how does the self-cleavage read?
Answer: 0.15

Question: With C17U A45G U60C C62U A75U as the variant, how does the self-cleavage read?
Answer: 0.1

Question: With C17U A47G G70C U78C as the variant, how does the self-cleavage read?
Answer: 0.17

Question: Which self-cleavage does the source give for C17U A56U U69A here?
Answer: 0.14

Question: With C17U A64G U72C as the variant, how does the self-cleavage read?
Answer: 0.25

Question: With C17U C23G U72C as the variant, how does the self-cleavage read?
Answer: 0.12

Question: Which self-cleavage does the source give for C17U C27U U31A C32A here?
Answer: 0.23

Question: Which self-cleavage does the source give for C17U C29U A56G U66A here?
Answer: 0.08

Question: For C17U C29U U60C, which self-cleavage is on record?
Answer: 0.25

Question: With C17U C32G C59A U67A U74A U80A as the variant, how does the self-cleavage read?
Answer: 0.03

Question: For C17U C34G C81G, which self-cleavage is on record?
Answer: 0.29

Question: Which self-cleavage does the source give for C17U C39A U41C U72C C81U here?
Answer: 0.09

Question: For C17U G19A U25C A35G U43C A56G, which self-cleavage is on record?
Answer: 0.09

Question: For C17U G19C C40A U54G A64G U72G, which self-cleavage is on record?
Answer: 0.03

Question: For C17U G19U U60A, which self-cleavage is on record?
Answer: 0.12

Question: Which self-cleavage does the source give for C17U G22C U31C C44U A45U here?
Answer: 0.04

Question: With C17U G33A U80A as the variant, how does the self-cleavage read?
Answer: 0.17

Question: For C17U U25A U54C, which self-cleavage is on record?
Answer: 0.24

Question: For C17U U25C A47G, which self-cleavage is on record?
Answer: 0.35

Question: With C17U U25C C37U A57G U60C U80C as the variant, how does the self-cleavage read?
Answer: 0.11

Question: Which self-cleavage does the source give for C17U U25C U26C U78C here?
Answer: 0.27

Question: Which self-cleavage does the source give for C17U U25C U31A U41G A47G U54C here?
Answer: 0.08

Question: With C17U U25C U31C A35G U78A as the variant, how does the self-cleavage read?
Answer: 0.09

Question: With C17U U26A C37U U41C U48C U76C as the variant, how does the self-cleavage read?
Answer: 0.09

Question: With C17U U26A G53A A65G as the variant, how does the self-cleavage read?
Answer: 0.19

Question: With C17U U26C A35U U49C U58C as the variant, how does the self-cleavage read?
Answer: 0.02

Question: For C17U U26C A45U U54C, which self-cleavage is on record?
Answer: 0.11

Question: For C17U U26C U58C U67C U72C, which self-cleavage is on record?
Answer: 0.11

Question: Which self-cleavage does the source give for C17U U31C A47G here?
Answer: 0.45

Question: For C17U U31C A65G U72C U74C, which self-cleavage is on record?
Answer: 0.13

Question: Which self-cleavage does the source give for C17U U41A U43A U72A here?
Answer: 0.07

Question: For C17U U41A U48C U51A A65G U72C, which self-cleavage is on record?
Answer: 0.07

Question: With C17U U41A U49C U80A as the variant, how does the self-cleavage read?
Answer: 0.25

Question: With C17U U41C A57G U69A U72C as the variant, how does the self-cleavage read?
Answer: 0.18

Question: Which self-cleavage does the source give for C17U U41C C44G A45G A65G U74C here?
Answer: 0.07

Question: Which self-cleavage does the source give for C17U U41C G42C here?
Answer: 0.21

Question: With C17U U41G U67C as the variant, how does the self-cleavage read?
Answer: 0.17

Question: For C17U U43C A45G C59U U69A, which self-cleavage is on record?
Answer: 0.23

Question: With C17U U43C A47G A56G as the variant, how does the self-cleavage read?
Answer: 0.15

Question: For C17U U48C A64G U74A, which self-cleavage is on record?
Answer: 0.23

Question: With C17U U48C G53A U54C as the variant, how does the self-cleavage read?
Answer: 0.18

Question: Which self-cleavage does the source give for C17U U48C U69G U80A here?
Answer: 0.07

Question: With C17U U49C U54A as the variant, how does the self-cleavage read?
Answer: 0.14

Question: For C17U U49C U67C U78C, which self-cleavage is on record?
Answer: 0.08

Question: Which self-cleavage does the source give for C17U U51A A77U here?
Answer: 0.7

Question: For C17U U51A U66C, which self-cleavage is on record?
Answer: 0.31

Question: Which self-cleavage does the source give for C17U U54A U67C here?
Answer: 0.1

Question: With C17U U54C A64G as the variant, how does the self-cleavage read?
Answer: 0.22

Question: For C17U U54C C81A, which self-cleavage is on record?
Answer: 1.17

Question: With C17U U58C A75U as the variant, how does the self-cleavage read?
Answer: 0.35

Question: With C17U U60C U78C as the variant, how does the self-cleavage read?
Answer: 0.15

Question: For C17U U66C U69G, which self-cleavage is on record?
Answer: 0.12

Question: For C17U U72A U80A, which self-cleavage is on record?
Answer: 0.24

Question: For C17U U72C U80G, which self-cleavage is on record?
Answer: 0.45

Question: For C17U U76C U80C, which self-cleavage is on record?
Answer: 1.14

Question: With A18C A20G U26A U43C as the variant, how does the self-cleavage read?
Answer: 0.39

Question: For A18C A20U A65G, which self-cleavage is on record?
Answer: 0.28

Question: For A18C A21G U58C, which self-cleavage is on record?
Answer: 0.16

Question: For A18C A21G U66C, which self-cleavage is on record?
Answer: 0.59

Question: For A18C A21U A45U U51A, which self-cleavage is on record?
Answer: 0.05

Question: With A18C A21U C27A U41C as the variant, how does the self-cleavage read?
Answer: 0.15

Question: For A18C A21U C44A A56U U58C A64U, which self-cleavage is on record?
Answer: 0.03

Question: For A18C A28G A45U U69C, which self-cleavage is on record?
Answer: 0.24

Question: Which self-cleavage does the source give for A18C A35C A77G here?
Answer: 0.11

Question: For A18C A35G U43C A45G, which self-cleavage is on record?
Answer: 0.09

Question: Which self-cleavage does the source give for A18C A35G U67C U72C U74A here?
Answer: 0.31

Question: With A18C A45C A57G U72C as the variant, how does the self-cleavage read?
Answer: 0.09
